In article PMC12462500, “MRAP2 modifies the signaling and oligomerization state of the melanocortin-4 receptor” (Nature Communications, 2025):

Target: the molecule itself
Assay: molecular brightness (SpIDA); confocal images of the basolateral membrane of HEK293AD cells with SNAP-tagged receptors labelled with SNAP-Surface647; SNAP-β1AR as the monomeric reference

B1: SNAP-tagged human melanocortin-4 receptor (SNAP-MC4R) (receptor, UniProt P32245 1-332, looked up)
chain: MVNSTHRGMHTSLHLWNRSSYRLHSNASESLGKGYSDGGCYEQLFVSPEVFVTLGVISLLENILVIVAIAKNKNLHSPMYFFICSLAVADMLVSVSNGSETIVITLLNSTDTDAQSFTVNIDNVIDSVICSSLLASICSLLSIAVDRYFTIFYALQYHNIMTVKRVGIIISCIWAACTVSGILFIIYSDSSAVIICLITMFFTMLALMASLYVHMFLMARLHIKRIAVLPGTGAIRQGANMKGAITLTILIGVFVVCWAPFFLHLIFYISCPQNPYCVCFMSHFNLYLILIMCNSIIDPLIYALRSQELRKTFKEIICCYPLGGLCDLSSRY
modifications: SNAP-tag labelled with SNAP-Surface647 or SNAP-Surface549 dye
notes: human melanocortin-4 receptor (hMC4R), wild type, in pcDNA3 or pVITRO2; The tag order Igκ-HA-ST-SNAP is told for the pVITRO2 construct; also called SNAP-MC4R-WT; SNAP-hMC4R; source: HEK293 (HEK293T, HEK293AD), transiently transfected, on live cells; not shown: SNAP-tag, N-terminal, kept
- molecular brightness relative to a monomer: ~1.7 times
- stoichiometry N: ~2
